Data as given in the supplement of paper PMC9151546.
Where a name gives a salt, the structure may show the parent alone. Repeats are few or missing, and single values can be far off.

How the values were obtained:
CHO-K1 [1] = test: hypodiploid nuclei frequency (% of nucleated events); higher = more hypodiploid events (aneugenic)
Description: (§1)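 Flow-cytometric in vitro micronucleus assay (Litron MicroFlow) in CHO-K1 cells in 96-well plates, 19 concentrations (4.5-200 µM, n=1 per concentration). Without S9, cells were exposed for 24 h and sampled at 48 h. With Aroclor 1254-induced rat liver S9, cells were exposed for 3-4 h and sampled at 27-28 h. Read-outs are %MN and %hypodiploid nuclei relative to nucleated events, and relative survival as the nuclei-to-bead ratio versus the 1% DMSO vehicle control (x100).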

CHO-K1 [2] = test: relative survival (nuclei to bead ratio vs DMSO control) (% of vehicle control); higher = more surviving cells
Description: as §1

CHO-K1 [3] = test: micronucleus frequency (% of nucleated events); higher = more micronuclei (genotoxic)
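Wherever hypodiploid nuclei frequency (% of nucleated events) is given: hypodiploid nuclei gated on a flow cytometer with 488 nm excitation after SYTOX Green staining, cultures at 37 °C, positive controls vinblastine without S9 and cyclophosphamide with S9.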
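Wherever micronucleus frequency (% of nucleated events) is given: cells lysed with nuclei stained by SYTOX Green, then micronucleus-gated events counted against nucleated events by flow cytometry with 488 nm excitation.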
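Wherever relative survival (nuclei to bead ratio vs DMSO control) is given: Lysed-cell nuclei stained with SYTOX Green and counted against counting beads by flow cytometry at 488 nm excitation, with vinblastine (no S9) and cyclophosphamide (plus S9) as positive controls.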

Clc1ccc(Cl)cc1 [1,4-Dichlorobenzene]
Conditions	hypodiploid nuclei frequency, CHO-K1 [1] [%]	micronucleus frequency, CHO-K1 [3] [%]	relative survival, CHO-K1 [2]
concentration: 4.5 (µM), S9 metabolic activation: with S9, exposure time: 3-4 hours	0.24	1.46	119
concentration: 4.5 (µM), S9 metabolic activation: without S9, exposure time: 24 hours	1.2	1.36	99
concentration: 5.63 (µM), S9 metabolic activation: with S9, exposure time: 3-4 hours	0.1	1.3	89.8
concentration: 5.63 (µM), S9 metabolic activation: without S9, exposure time: 24 hours	1.08	1.56	107
concentration: 7.04 (µM), S9 metabolic activation: with S9, exposure time: 3-4 hours	0.28	1.52	90.6
concentration: 7.04 (µM), S9 metabolic activation: without S9, exposure time: 24 hours	0.78	1.26	97.8
concentration: 8.8 (µM), S9 metabolic activation: with S9, exposure time: 3-4 hours	0.14	1.04	90.1
concentration: 8.8 (µM), S9 metabolic activation: without S9, exposure time: 24 hours	1.02	1.06	97.4
concentration: 11 (µM), S9 metabolic activation: with S9, exposure time: 3-4 hours	0.3	1.42	82.4
concentration: 11 (µM), S9 metabolic activation: without S9, exposure time: 24 hours	0.64	1.42	85
concentration: 13.7 (µM), S9 metabolic activation: with S9, exposure time: 3-4 hours	0.26	1.42	105
concentration: 13.7 (µM), S9 metabolic activation: without S9, exposure time: 24 hours	0.86	1.16	93.1
concentration: 17.2 (µM), S9 metabolic activation: with S9, exposure time: 3-4 hours	0.24	1.2	102
concentration: 17.2 (µM), S9 metabolic activation: without S9, exposure time: 24 hours	0.72	1.12	90.2
concentration: 21.5 (µM), S9 metabolic activation: with S9, exposure time: 3-4 hours	0.22	1.34	87.6
concentration: 21.5 (µM), S9 metabolic activation: without S9, exposure time: 24 hours	0.82	0.76	102
concentration: 26.8 (µM), S9 metabolic activation: with S9, exposure time: 3-4 hours	0.2	1.22	124
concentration: 26.8 (µM), S9 metabolic activation: without S9, exposure time: 24 hours	1.14	1.18	75.1
concentration: 33.6 (µM), S9 metabolic activation: with S9, exposure time: 3-4 hours	0.42	1.74	120
concentration: 33.6 (µM), S9 metabolic activation: without S9, exposure time: 24 hours	1.9	1.22	71.9
concentration: 41.9 (µM), S9 metabolic activation: with S9, exposure time: 3-4 hours	0.18	1.94	143
concentration: 41.9 (µM), S9 metabolic activation: without S9, exposure time: 24 hours	1.44	0.88	96.2
concentration: 52.4 (µM), S9 metabolic activation: with S9, exposure time: 3-4 hours	0.22	1.56	112
concentration: 52.4 (µM), S9 metabolic activation: without S9, exposure time: 24 hours	0.96	1.34	92
concentration: 65.5 (µM), S9 metabolic activation: with S9, exposure time: 3-4 hours	0.3	1.88	115
concentration: 65.5 (µM), S9 metabolic activation: without S9, exposure time: 24 hours	1.02	1.7	98.6
concentration: 81.9 (µM), S9 metabolic activation: with S9, exposure time: 3-4 hours	0.28	1.72	94.1
concentration: 81.9 (µM), S9 metabolic activation: without S9, exposure time: 24 hours	0.94	1.22	104
concentration: 102 (µM), S9 metabolic activation: with S9, exposure time: 3-4 hours	0.26	1.3	103
concentration: 102 (µM), S9 metabolic activation: without S9, exposure time: 24 hours	1.18	1.56	85.6
concentration: 128 (µM), S9 metabolic activation: with S9, exposure time: 3-4 hours	0.28	1.92	114
concentration: 128 (µM), S9 metabolic activation: without S9, exposure time: 24 hours	1.34	1.96	95.4
concentration: 160 (µM), S9 metabolic activation: with S9, exposure time: 3-4 hours	0.32	1.88	94.6
concentration: 160 (µM), S9 metabolic activation: without S9, exposure time: 24 hours	1.18	1.48	99.9
concentration: 200 (µM), S9 metabolic activation: with S9, exposure time: 3-4 hours	0.36	1.64	91.1
concentration: 200 (µM), S9 metabolic activation: without S9, exposure time: 24 hours	1.4	2	79.5

CC#C[C@]1(O)CC[C@H]2[C@@H]3CCC4=CC(=O)CCC4=C3[C@@H](c3ccc(N(C)C)cc3)C[C@@]21C [Mifepristone]
Conditions	hypodiploid nuclei frequency, CHO-K1 [1] [%]	micronucleus frequency, CHO-K1 [3] [%]	relative survival, CHO-K1 [2]
concentration: 4.5 (µM), S9 metabolic activation: with S9, exposure time: 3-4 hours	0.26	0.9	66.4
concentration: 4.5 (µM), S9 metabolic activation: without S9, exposure time: 24 hours	0.44	2.7	85.3
concentration: 5.63 (µM), S9 metabolic activation: with S9, exposure time: 3-4 hours	0.2	1	79.3
concentration: 5.63 (µM), S9 metabolic activation: without S9, exposure time: 24 hours	0.52	2.52	98.5
concentration: 7.04 (µM), S9 metabolic activation: with S9, exposure time: 3-4 hours	0.24	1.04	76.7
concentration: 7.04 (µM), S9 metabolic activation: without S9, exposure time: 24 hours	0.54	2	107
concentration: 8.8 (µM), S9 metabolic activation: with S9, exposure time: 3-4 hours	0.14	0.92	76.4
concentration: 8.8 (µM), S9 metabolic activation: without S9, exposure time: 24 hours	0.52	2.14	122
concentration: 11 (µM), S9 metabolic activation: with S9, exposure time: 3-4 hours	0.16	0.78	76.7
concentration: 11 (µM), S9 metabolic activation: without S9, exposure time: 24 hours	0.48	2.08	104
concentration: 13.7 (µM), S9 metabolic activation: with S9, exposure time: 3-4 hours	0.2	1.08	81.8
concentration: 13.7 (µM), S9 metabolic activation: without S9, exposure time: 24 hours	0.46	1.56	108
concentration: 17.2 (µM), S9 metabolic activation: with S9, exposure time: 3-4 hours	0.08	1.02	108
concentration: 17.2 (µM), S9 metabolic activation: without S9, exposure time: 24 hours	0.7	1.68	113
concentration: 21.5 (µM), S9 metabolic activation: with S9, exposure time: 3-4 hours	0.28	1.4	108
concentration: 21.5 (µM), S9 metabolic activation: without S9, exposure time: 24 hours	0.44	2.22	73.4
concentration: 26.8 (µM), S9 metabolic activation: with S9, exposure time: 3-4 hours	0.4	0.84	63
concentration: 26.8 (µM), S9 metabolic activation: without S9, exposure time: 24 hours	0.56	1.32	81.2
concentration: 33.6 (µM), S9 metabolic activation: with S9, exposure time: 3-4 hours	0.18	0.7	107
concentration: 33.6 (µM), S9 metabolic activation: without S9, exposure time: 24 hours	0.5	1.04	72.9
concentration: 41.9 (µM), S9 metabolic activation: with S9, exposure time: 3-4 hours	0.14	0.98	66.9
concentration: 41.9 (µM), S9 metabolic activation: without S9, exposure time: 24 hours	0.54	1.38	56.9
concentration: 52.4 (µM), S9 metabolic activation: with S9, exposure time: 3-4 hours	0.24	1.46	81.1
concentration: 52.4 (µM), S9 metabolic activation: without S9, exposure time: 24 hours	0.52	1.44	53.1
concentration: 65.5 (µM), S9 metabolic activation: with S9, exposure time: 3-4 hours	0.22	1.6	77.8
concentration: 65.5 (µM), S9 metabolic activation: without S9, exposure time: 24 hours	0.6	1.3	48.2
concentration: 81.9 (µM), S9 metabolic activation: with S9, exposure time: 3-4 hours	0.25	0.83	54.6
concentration: 81.9 (µM), S9 metabolic activation: without S9, exposure time: 24 hours	0.42	1.46	43.6
concentration: 102 (µM), S9 metabolic activation: with S9, exposure time: 3-4 hours	0.25	1.21	66.5
concentration: 102 (µM), S9 metabolic activation: without S9, exposure time: 24 hours	0.46	1.78	46.4
concentration: 128 (µM), S9 metabolic activation: with S9, exposure time: 3-4 hours	0.32	1.3	59.1
concentration: 128 (µM), S9 metabolic activation: without S9, exposure time: 24 hours	–	–	40
concentration: 160 (µM), S9 metabolic activation: with S9, exposure time: 3-4 hours	0.14	0.9	75.8
concentration: 160 (µM), S9 metabolic activation: without S9, exposure time: 24 hours	0.36	1.26	46
concentration: 200 (µM), S9 metabolic activation: with S9, exposure time: 3-4 hours	0.3	1.52	95.1
concentration: 200 (µM), S9 metabolic activation: without S9, exposure time: 24 hours	0.37	1.01	47.9

CN(C)[C@@H]1C(O)=C(C(N)=O)C(=O)[C@@]2(O)C(O)=C3C(=O)c4c(O)cccc4[C@@](C)(O)[C@H]3[C@H](O)[C@@H]12 [Oxytetracycline hydrochloride]
Conditions	hypodiploid nuclei frequency, CHO-K1 [1] [%]	micronucleus frequency, CHO-K1 [3] [%]	relative survival, CHO-K1 [2]
concentration: 4.5 (µM), S9 metabolic activation: with S9, exposure time: 3-4 hours	0.26	1.42	122
concentration: 4.5 (µM), S9 metabolic activation: without S9, exposure time: 24 hours	0.52	1.32	78
concentration: 5.63 (µM), S9 metabolic activation: with S9, exposure time: 3-4 hours	0.18	1.02	86.6
concentration: 5.63 (µM), S9 metabolic activation: without S9, exposure time: 24 hours	0.76	2.48	88.9
concentration: 7.04 (µM), S9 metabolic activation: with S9, exposure time: 3-4 hours	0.2	1.28	84.2
concentration: 7.04 (µM), S9 metabolic activation: without S9, exposure time: 24 hours	0.7	2.2	98.3
concentration: 8.8 (µM), S9 metabolic activation: with S9, exposure time: 3-4 hours	0.1	1.28	96.1
concentration: 8.8 (µM), S9 metabolic activation: without S9, exposure time: 24 hours	0.6	1.42	87.5
concentration: 11 (µM), S9 metabolic activation: with S9, exposure time: 3-4 hours	0.32	1.62	99.9
concentration: 11 (µM), S9 metabolic activation: without S9, exposure time: 24 hours	1.04	1.96	60.9
concentration: 13.7 (µM), S9 metabolic activation: with S9, exposure time: 3-4 hours	0.28	1.64	105
concentration: 13.7 (µM), S9 metabolic activation: without S9, exposure time: 24 hours	0.74	1.56	89.2
concentration: 17.2 (µM), S9 metabolic activation: with S9, exposure time: 3-4 hours	0.32	1.4	124
concentration: 17.2 (µM), S9 metabolic activation: without S9, exposure time: 24 hours	0.54	1.76	82.5
concentration: 21.5 (µM), S9 metabolic activation: with S9, exposure time: 3-4 hours	0.24	1.32	104
concentration: 21.5 (µM), S9 metabolic activation: without S9, exposure time: 24 hours	0.8	1.9	68.3
concentration: 26.8 (µM), S9 metabolic activation: with S9, exposure time: 3-4 hours	0.34	1.52	82.2
concentration: 26.8 (µM), S9 metabolic activation: without S9, exposure time: 24 hours	0.36	1.46	81.6
concentration: 33.6 (µM), S9 metabolic activation: with S9, exposure time: 3-4 hours	0.22	1.04	108
concentration: 33.6 (µM), S9 metabolic activation: without S9, exposure time: 24 hours	0.64	1.28	91
concentration: 41.9 (µM), S9 metabolic activation: with S9, exposure time: 3-4 hours	0.3	1.58	107
concentration: 41.9 (µM), S9 metabolic activation: without S9, exposure time: 24 hours	0.34	1.98	75.7
concentration: 52.4 (µM), S9 metabolic activation: with S9, exposure time: 3-4 hours	0.3	1.92	87.1
concentration: 52.4 (µM), S9 metabolic activation: without S9, exposure time: 24 hours	0.74	1.64	83.4
concentration: 65.5 (µM), S9 metabolic activation: with S9, exposure time: 3-4 hours	0.4	3.34	91.3
concentration: 65.5 (µM), S9 metabolic activation: without S9, exposure time: 24 hours	0.72	1.3	81
concentration: 81.9 (µM), S9 metabolic activation: with S9, exposure time: 3-4 hours	0.2	1.14	99.4
concentration: 81.9 (µM), S9 metabolic activation: without S9, exposure time: 24 hours	1	1.54	68.5
concentration: 102 (µM), S9 metabolic activation: with S9, exposure time: 3-4 hours	0.34	2.22	91.9
concentration: 102 (µM), S9 metabolic activation: without S9, exposure time: 24 hours	1.12	1.94	65.9
concentration: 128 (µM), S9 metabolic activation: with S9, exposure time: 3-4 hours	0.36	1.38	101
concentration: 128 (µM), S9 metabolic activation: without S9, exposure time: 24 hours	0.7	1.4	65.2
concentration: 160 (µM), S9 metabolic activation: with S9, exposure time: 3-4 hours	0.48	1.72	97.5
concentration: 160 (µM), S9 metabolic activation: without S9, exposure time: 24 hours	1.4	2.06	74.7
concentration: 200 (µM), S9 metabolic activation: with S9, exposure time: 3-4 hours	0.62	2.16	98.2
concentration: 200 (µM), S9 metabolic activation: without S9, exposure time: 24 hours	1.48	2.32	60.1
